# The campaign covered roughly 310,000 compounds. About 2,200 (0.71%) showed an effect of 50% or more. Effects have a minus sign here. This is one part of the list.
# Biological target: human ether-à-go-go-related gene (hERG) potassium channel (human, UniProt Q12809)
# Test: primary screen, population patch clamp on CHO cells stably expressing hERG
# Sequence of human ether-à-go-go-related gene (hERG) potassium channel (Q12809 whole entry, looked up): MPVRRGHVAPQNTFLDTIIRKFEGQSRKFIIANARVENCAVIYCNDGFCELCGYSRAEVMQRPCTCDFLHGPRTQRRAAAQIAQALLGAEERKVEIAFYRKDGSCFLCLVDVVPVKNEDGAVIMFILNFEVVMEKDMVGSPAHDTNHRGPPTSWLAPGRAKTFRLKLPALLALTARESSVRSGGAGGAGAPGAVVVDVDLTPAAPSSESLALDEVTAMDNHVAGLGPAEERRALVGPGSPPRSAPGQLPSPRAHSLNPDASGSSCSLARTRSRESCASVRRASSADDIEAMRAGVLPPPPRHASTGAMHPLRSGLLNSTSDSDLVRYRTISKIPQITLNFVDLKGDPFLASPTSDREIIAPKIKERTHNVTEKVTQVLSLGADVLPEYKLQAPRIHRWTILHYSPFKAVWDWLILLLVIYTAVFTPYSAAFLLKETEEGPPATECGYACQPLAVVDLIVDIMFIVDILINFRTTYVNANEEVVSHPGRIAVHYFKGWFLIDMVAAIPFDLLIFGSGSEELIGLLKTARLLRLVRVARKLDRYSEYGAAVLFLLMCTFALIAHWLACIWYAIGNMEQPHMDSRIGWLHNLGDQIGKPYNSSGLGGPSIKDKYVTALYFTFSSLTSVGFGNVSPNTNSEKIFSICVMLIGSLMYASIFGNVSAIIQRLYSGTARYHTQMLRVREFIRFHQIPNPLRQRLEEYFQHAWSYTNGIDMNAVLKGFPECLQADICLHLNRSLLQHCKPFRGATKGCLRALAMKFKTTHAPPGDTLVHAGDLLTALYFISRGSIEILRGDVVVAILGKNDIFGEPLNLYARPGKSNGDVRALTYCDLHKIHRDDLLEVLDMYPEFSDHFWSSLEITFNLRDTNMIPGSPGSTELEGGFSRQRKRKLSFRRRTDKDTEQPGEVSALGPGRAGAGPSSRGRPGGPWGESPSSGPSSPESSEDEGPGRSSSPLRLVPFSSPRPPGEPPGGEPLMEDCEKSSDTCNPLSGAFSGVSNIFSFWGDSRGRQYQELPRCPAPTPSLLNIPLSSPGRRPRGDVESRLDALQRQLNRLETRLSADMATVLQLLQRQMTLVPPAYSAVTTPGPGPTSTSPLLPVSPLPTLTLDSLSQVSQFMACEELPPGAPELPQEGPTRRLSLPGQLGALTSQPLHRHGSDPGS
row,Compound,"hERG current change (%, negative = inhibition) at 1uM [%]"
1,CCOC(=O)C1=C(C)OC(N)=C(C#N)C12C(=O)N(C)c1ccccc12 (centres unmarked),16.9
2,Cc1ccc(C(CCNC(C)c2cccs2)c2ccco2)cc1 (centres unmarked),-6.57
3,O=C(N/N=C/c1c(Cl)cccc1Cl)c1ccc(F)cc1,-9.15
4,CC1(C)CC(=O)C=C(NNC(=O)c2ccccc2)C1,15.6
5,Cc1cccc(OCc2nnc(NC(=O)Cc3cccs3)s2)c1,9.25
6,CCC/C=N/NC(=O)c1ccc(F)cc1,8.66
7,CCCC(C)(COC(N)=O)COC(=O)NC(C)C (centres unmarked),-6.24
8,Cc1ccc(S(=O)(=O)NCCc2ccccc2)cc1,9.1
9,CC(NC(=O)CC1SC(N)=NC1=O)c1ccccc1 (centres unmarked),0.396
10,CCn1nc(C)c(CNC(=O)C2CCC(=O)N(CCc3ccc(OC)cc3)C2)c1C (centres unmarked),10.7
11,CNC(=O)CSc1nnc(-c2ccc(S(=O)(=O)N3CCCC3)cc2)n1-c1cccc(C)c1C,7.16
12,Cc1cc(=O)cc(C)n1-c1ccc(O)cc1,8.96
13,CN(C)S(=O)(=O)c1cccc(COC(=O)c2cc([N+](=O)[O-])ccc2N2CCOCC2)c1,9.2
14,CC(=O)c1sc(NC(=O)CCN2C(=O)c3ccccc3C2=O)nc1C,16.6
15,Cc1cc(N/C=C/C(=O)c2ccc(Br)cc2)no1,0.889
16,CCOc1ccccc1-c1nc(CN2CCC(C(=O)N3CCOCC3)CC2)c(C)o1,5.93
17,O=C(CSc1ccccc1C(=O)O)Nc1cccc(C(=O)O)c1,9.03
18,O=C1C=C(N(CCO)CCO)C2(CCCCC2)O1,3.83
19,O=C(CCNS(=O)(=O)c1ccccc1)N1CCN(c2ccccc2F)CC1,-12
20,Cc1ccc(C)c(NC(=S)NCCc2ccc(S(N)(=O)=O)cc2)c1,3.82
21,O=C(O)CC/C(=N\Nc1ccc(S(=O)(=O)N2CCOCC2)cc1[N+](=O)[O-])c1cccs1,10.1
22,OC1CCCN(Cc2cn(Cc3ccccc3)nc2-c2cc3ccccc3o2)C1 (centres unmarked),-7.53
23,CC(C)(C)NC(=O)CCN(/N=C/c1ccccc1)C1=NS(=O)(=O)c2ccccc21,7.27

row,Compound,"hERG current change (%, negative = inhibition) at 1uM [%]"
1,CC(NC(=O)c1ccc(CS(=O)(=O)c2ccc(Cl)cc2)o1)c1ccc2c(c1)OCCO2 (centres unmarked),2.86
2,O=C1c2ccccc2NC(c2ccc(-c3cccc([N+](=O)[O-])c3)o2)N1O (centres unmarked),3.82
3,COc1ccc(C)cc1S(=O)(=O)n1cnc(C)c1,16.8
4,COc1ccc(CNC(=O)C2CCN(c3nc(OC)nc(OC)n3)CC2)cc1,-28.9
5,COc1cccc(NC(=O)CN(C)C(=O)c2cc(C)on2)c1,11
6,CCCSc1cc(N2CCOCC2)nc(-c2ccccc2Cl)n1,9.12
7,COc1ccc(NC(=O)c2ccc3[nH]c(C)c(C)c3c2)c(OC)c1,9.57
8,CCCc1cc(=O)[nH]c(SCC(=O)c2cc(C)n(CCOC)c2C)n1,11.6
9,COc1ccc2oc(=O)cc(CN(C)Cc3ccccc3)c2c1,4.28
10,O=C(CCSc1ccc(Cl)cc1)N1CCN(c2ncccn2)CC1,-16.3
11,CCc1ccccc1NC(=O)CSc1nnc(C2CC2)n1CC1CCCO1 (centres unmarked),8.55
12,CCOC(=O)C1=C(CC)Nc2ccccc2N/C1=N\S(=O)(=O)c1ccccc1OC,14.4
13,COc1ccc(OC)c(NP(=O)(Oc2ccccc2)Oc2ccccc2)c1,10.6
14,Cc1cc(Nc2ccccc2)c2c([N+](=O)[O-])ccc(C)c2n1,6.2
15,Cc1ccc(OCC(=O)Nc2ccccc2F)cc1C,18.1
16,CCOC(=O)c1ccc(S(=O)(=O)N(CCO)Cc2cc3cc(OC)c(OC)cc3[nH]c2=O)cc1,10.4
17,CCOC(=O)c1cccc(Nc2nc(C)cc(C)n2)c1,11.5
18,CC1CN(C(=O)COC(=O)c2cccc(NS(=O)(=O)c3ccccc3)c2)CC(C)O1 (centres unmarked),10.6
19,NC(=O)CC(NC(=O)Cc1cccc2ccccc12)c1ccc(NC2CCN(Cc3ccccc3)CC2)c([N+](=O)[O-])c1 (centres unmarked),4.66
20,O=[n+]1c2c(n([O-])c3ccccc31)CCCC2,3.91
21,CCOC(=O)c1c(C)[nH]c(C)c1C(=O)CSc1nc2ccccc2n1CCC#N,11.5
22,O=C(CN1C(=O)S/C(=C\c2cccc(Cl)c2)C1=O)NC1C=CS(=O)(=O)C1 (centres unmarked),6.17
23,CC(C)(C)OC(=O)NCCCC[C@H](NC(=O)c1[nH]cnc1C(=O)Nc1ccc(CNC(=O)OC(C)(C)C)cc1)C(=O)OC(C)(C)C,16.1

row,Compound,"hERG current change (%, negative = inhibition) at 1uM [%]"
1,COc1cc(NC(=O)Cc2nn(C)c(=O)c3ccccc23)cc(OC)c1,7.58
2,CCCNc1cc(=S)nc(N)[nH]1,12.9
3,O=C(CN1CCN(c2ccccc2)CC1)c1c[nH]c2ccccc12,12.8
4,Cc1cc(C(C)(C)C)ccc1NC(=O)CC(C)(C)CC(=O)O,12.7
5,O=C(COc1ccc(-n2cnnn2)cc1)Nc1ccc(F)c(F)c1F,9.59
6,CCCN1CCN(C(=O)Cn2cnc3ccc(S(=O)(=O)N4CCC(C)CC4)cc3c2=O)CC1,-9.74
7,Cc1cccc(NC(=O)CSCc2cc(=O)n3ccsc3n2)c1C,11.9
8,C/C=C(\C)C(=O)O[C@@H]([C@H](O)c1cc2ccc(=O)oc2cc1OC)C(C)(C)O,13.2
9,CC(C)CN1C(=O)C(=O)N(CC(=O)Nc2cccc(Cl)c2Cl)C1=O,4.23
10,COc1ccc(-c2cc3nc4c(c(=O)n3[nH]2)CCC4)cc1,1.76
11,Cc1c(O)ccc(C(=O)COc2ccc(F)cc2)c1O,9.83
12,COc1cc2c(cc1OC)C(C)N(S(=O)(=O)c1ccc(Cl)nc1)CC2 (centres unmarked),5.28
13,Cc1cccc2nc(-c3cccnc3)c(NCCC(C)C)n12,0.734
14,Cc1ccc(C(=O)NC2(C(Cl)Cl)N=C(c3ccccc3)N=C2N)cc1 (centres unmarked),8.82
15,CC(=O)NCC12CC3CC(C1)CC(C(=O)O)(C3)C2,10.6
16,O=C(CN1C(=O)c2ccccc2C1=O)OCC(=O)N1CCN(c2ccccc2)CC1,7.65
17,O=C(Cn1cc2c(n1)CCCCC2)NC1CCCCCC1,6.49
18,CSc1nc2ccc3nc(NC(=O)c4cccs4)sc3c2s1,-11.9
19,CC(=O)Oc1ccc(N(C(C)=O)S(=O)(=O)c2ccc3ccccc3c2)cc1Br,14
20,Cc1cccc2c1NC(=O)C2(c1ccc(O)cc1)c1ccc(O)cc1,3.4
21,CCOC(=O)C1(CC2CCCCO2)CCN(S(=O)(=O)c2cc(C)cs2)CC1 (centres unmarked),8.07
22,Cc1ccc(/C=C2/SC(=S)N(CCC(=O)NCCCN3CCOCC3)C2=O)cc1,0.32
23,c1ccc2c(c1)CCCn1nnnc1-2,6.71

row,Compound,"hERG current change (%, negative = inhibition) at 1uM [%]"
1,O=C(Nc1ccc(Cl)c(Cl)c1)c1ccncc1,-2.67
2,CCCCN(C)C(=O)CCCCn1c(=O)[nH]c2cc(OCC)c(OCC)cc2c1=O,4.02
3,CCN(CC)c1ccc(C(=O)NNC(=O)CCNC(=O)c2ccccc2)cc1,-3.84
4,O=C(NCCN1CCOCC1)c1ccc2c(c1)N(Cc1ccccc1F)C(=O)CS2,2.96
5,COc1cccc(CNC(=O)c2ccc3c(c2)S(=O)(=O)N=C2CCCCCN23)c1,0.413
6,CCCn1nc([N+](=O)[O-])c(C(C#N)c2nc3ccccc3s2)c(Cl)c1=O (centres unmarked),12.1
7,CN1CCN(c2nc(-c3ccccn3)nc3ccccc23)CC1,-12.1
8,COc1ccc(CCNC(=O)C2CCCCC2C(=O)O)cc1OC (centres unmarked),3.16
9,O=C(COC(=O)c1cc([N+](=O)[O-])ccc1NCc1ccccc1)NC1CCCCC1,-4.65
10,CCCn1nnc(NC(=S)NC(=O)/C=C/c2ccc(Cl)cc2)n1,20.6
11,COc1cc(/C=C2\NC(=S)N(C)C2=O)ccc1OCc1cccc(F)c1,16.3
12,O=C(c1cc(-c2ccccc2)nc2ccccc12)N1CCc2ccccc2C1,4.22
13,O=C1CN(C(=O)COC(=O)/C=C/c2ccc(OC(F)F)cc2)c2ccccc2N1,4.21
14,COC(=O)c1ccc(COc2ccc(C(C)(C)C)cc2)o1,17.1
15,CCc1ccc(-n2c(SCC(=O)N3CCC(C(=O)O)CC3)nnc2-c2ccncc2)cc1,7.81
16,COc1cccc(CNCCSc2nnnn2C)c1OC.Cl,4.54
17,CCS(=O)(=O)N1CCN(C(=O)c2ccc(-c3ccccc3)cc2)CC1,3.99
18,Cc1nnc(SCc2cc(=O)oc3ccc4ccccc4c23)n1Cc1ccccc1,1.93
19,Cn1cc(CN2CCC(n3nccc3NC(=O)CCc3ccccc3)CC2)cn1,10.1
20,O=C(O)CCCN(Cc1cccc(Br)c1)S(=O)(=O)c1ccc(Br)cc1,6.91

# Reference: article PMC4336329 (PLoS ONE, 2015)
